Many values rest on one well or one pass, so single values are uncertain.
Experiments:
CHO-K1 [1] = assay: relative survival (nuclei to bead ratio vs DMSO control) (% of vehicle control); higher = more surviving cells
Experimental: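 Flow-cytometric in vitro micronucleus assay (Litron MicroFlow) in CHO-K1 cells in 96-well plates, 19 concentrations (4.5-200 µM, n=1 per concentration). Without S9, cells were exposed for 24 h and sampled at 48 h. With Aroclor 1254-induced rat liver S9, cells were exposed for 3-4 h and sampled at 27-28 h. Read-outs are %MN and %hypodiploid nuclei relative to nucleated events, and relative survival as the nuclei-to-bead ratio versus the 1% DMSO vehicle control (x100).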

CHO-K1 [2] = assay: micronucleus frequency (% of nucleated events); higher = more micronuclei (genotoxic)
CHO-K1 [3] = assay: hypodiploid nuclei frequency (% of nucleated events); higher = more hypodiploid events (aneugenic)
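For hypodiploid nuclei frequency (% of nucleated events) in this document: hypodiploid nuclei gated on a flow cytometer with 488 nm excitation after SYTOX Green staining, cultures at 37 °C, positive controls vinblastine without S9 and cyclophosphamide with S9.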
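For micronucleus frequency (% of nucleated events) in this document: cells lysed with nuclei stained by SYTOX Green, then micronucleus-gated events counted against nucleated events by flow cytometry with 488 nm excitation.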
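For relative survival (nuclei to bead ratio vs DMSO control) in this document: Lysed-cell nuclei stained with SYTOX Green and counted against counting beads by flow cytometry at 488 nm excitation, with vinblastine (no S9) and cyclophosphamide (plus S9) as positive controls.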

CC1(C)NC(=O)N(c2ccc([N+](=O)[O-])c(C(F)(F)F)c2)C1=O [Nilutamide]
Conditions | hypodiploid nuclei frequency, CHO-K1 [3] [%] | micronucleus frequency, CHO-K1 [2] [%] | relative survival, CHO-K1 [1]
concentration: 4.5 (µM), S9 metabolic activation: with S9, exposure time: 3-4 hours | 0.3 | 0.88 | 118
concentration: 4.5 (µM), S9 metabolic activation: without S9, exposure time: 24 hours | 0.84 | 1.66 | 119
concentration: 5.63 (µM), S9 metabolic activation: with S9, exposure time: 3-4 hours | 0.34 | 1.06 | 117
concentration: 5.63 (µM), S9 metabolic activation: without S9, exposure time: 24 hours | 0.8 | 1.26 | 118
concentration: 7.04 (µM), S9 metabolic activation: with S9, exposure time: 3-4 hours | 0.26 | 0.8 | 110
concentration: 7.04 (µM), S9 metabolic activation: without S9, exposure time: 24 hours | 0.98 | 1.48 | 112
concentration: 8.8 (µM), S9 metabolic activation: with S9, exposure time: 3-4 hours | 0.28 | 1.12 | 119
concentration: 8.8 (µM), S9 metabolic activation: without S9, exposure time: 24 hours | 1 | 1.32 | 118
concentration: 11 (µM), S9 metabolic activation: with S9, exposure time: 3-4 hours | 0.22 | 1.06 | 114
concentration: 11 (µM), S9 metabolic activation: without S9, exposure time: 24 hours | 0.8 | 1.24 | 109
concentration: 13.7 (µM), S9 metabolic activation: with S9, exposure time: 3-4 hours | 0.64 | 0.96 | 108
concentration: 13.7 (µM), S9 metabolic activation: without S9, exposure time: 24 hours | 0.78 | 1.54 | 100
concentration: 17.2 (µM), S9 metabolic activation: with S9, exposure time: 3-4 hours | 0.52 | 1 | 127
concentration: 17.2 (µM), S9 metabolic activation: without S9, exposure time: 24 hours | 1.12 | 1.52 | 114
concentration: 21.5 (µM), S9 metabolic activation: with S9, exposure time: 3-4 hours | 0.42 | 1.02 | 98.3
concentration: 21.5 (µM), S9 metabolic activation: without S9, exposure time: 24 hours | 0.84 | 1.38 | 93
concentration: 26.8 (µM), S9 metabolic activation: with S9, exposure time: 3-4 hours | 0.24 | 0.76 | 150
concentration: 26.8 (µM), S9 metabolic activation: without S9, exposure time: 24 hours | 1.38 | 1.88 | 84.5
concentration: 33.6 (µM), S9 metabolic activation: with S9, exposure time: 3-4 hours | 0.16 | 0.86 | 123
concentration: 33.6 (µM), S9 metabolic activation: without S9, exposure time: 24 hours | 0.96 | 1.92 | 93.7
concentration: 41.9 (µM), S9 metabolic activation: with S9, exposure time: 3-4 hours | 0.38 | 1 | 130
concentration: 41.9 (µM), S9 metabolic activation: without S9, exposure time: 24 hours | 1.74 | 1.98 | 86.9
concentration: 52.4 (µM), S9 metabolic activation: with S9, exposure time: 3-4 hours | 0.24 | 1.1 | 111
concentration: 52.4 (µM), S9 metabolic activation: without S9, exposure time: 24 hours | 1.62 | 2.24 | 88.3
concentration: 65.5 (µM), S9 metabolic activation: with S9, exposure time: 3-4 hours | 0.28 | 0.96 | 111
concentration: 65.5 (µM), S9 metabolic activation: without S9, exposure time: 24 hours | 1.94 | 2 | 80.1
concentration: 81.9 (µM), S9 metabolic activation: with S9, exposure time: 3-4 hours | 0.44 | 0.98 | 106
concentration: 81.9 (µM), S9 metabolic activation: without S9, exposure time: 24 hours | 2.08 | 2.12 | 70.7
concentration: 102 (µM), S9 metabolic activation: with S9, exposure time: 3-4 hours | 0.26 | 1.06 | 121
concentration: 102 (µM), S9 metabolic activation: without S9, exposure time: 24 hours | 3.16 | 2.6 | 73.5
concentration: 128 (µM), S9 metabolic activation: with S9, exposure time: 3-4 hours | 0.42 | 1.06 | 108
concentration: 128 (µM), S9 metabolic activation: without S9, exposure time: 24 hours | 2.64 | 2.36 | 74.1
concentration: 160 (µM), S9 metabolic activation: with S9, exposure time: 3-4 hours | 0.38 | 1.16 | 115
concentration: 160 (µM), S9 metabolic activation: without S9, exposure time: 24 hours | 3.88 | 2.78 | 60.3
concentration: 200 (µM), S9 metabolic activation: with S9, exposure time: 3-4 hours | 0.36 | 0.86 | 101
concentration: 200 (µM), S9 metabolic activation: without S9, exposure time: 24 hours | 3.3 | 3.04 | 60.1
